The source of these data is ChEMBL document CHEMBL4888484, “Replenishing the malaria drug discovery pipeline: Screening and hit evaluation of the MMV Hit Generation Library 1 (HGL1) against asexual blood stage Plasmodium falciparum ,using a nano luciferase reporter read-out” (2022).

In all, about 150,000 compounds went through this assay and about 540 (0.36%) showed an effect of 50% or more. The list shows a part of the results.

This test relates to Plasmodium falciparum. Nature of the test: Primary screen in NF54 nanoGlo assay, in single point, at 2uM, 72h; a lower Z score goes with more inhibition. The format is functional, Erythrocyte. Conditions: timepoint 72 hour.
In the case of `Cc1csc(COc2ccc3c(c2)CCC3=O)n1`, the “% Inhibition” value was found to be 6% and the Z score was -0.76.
On to `NC(=O)[C@H]1CCN(C(=O)c2ccc(Oc3ccc(F)c(F)c3)cc2)C1`, for which the “% Inhibition” value worked out at 3% and the Z score is reported as -0.29.
On to `O=C1[C@H]2[C@@H]3CCCN3[C@@]3(C(=O)Nc4ccc(Cl)cc43)[C@H]2C(=O)N1CC1CCCO1` (stereo partly specified), for which the “% Inhibition” value is -11% and the Z score was determined as 1.59.
The like results for `CN(CCCN=C(N)N1CCOCC1)c1ccccc1F` were, in that order, -6% and 1.03.
`C[C@@H](c1ccccc1)N1C(=O)C(=O)N(CC=Cc2ccccc2)C1=O`: the “% Inhibition” value is listed as -15% and the Z score was determined as 2.35.
Take `O=C([C@H]1CC(=O)N(C2CCCC2)C1)N1CCN(c2ccccc2)CC1`: the “% Inhibition” value is recorded as -14% and the Z score stood at 2.02.
In the case of `O=S(=O)(Cc1cccc(F)c1)N1Cc2cncnc2C1`, the “% Inhibition” value is -13% and the Z score amounted to 2.31.
As to `CCC(CC)S(=O)(=O)NC(=O)C1CC1C` (stereo unspecified), the “% Inhibition” value is -15% and the Z score amounted to 1.9.
Take `Cc1cccc(C(=O)N(Cc2csc(COc3cccc4ccccc34)n2)CC(C)C)c1`: the “% Inhibition” value is listed as -10% and the Z score came out at 1.96.
Consider `CCC1c2ccsc2CCN1CC(=O)NCCNC(=O)CN1CCc2sccc2C1CC` (stereo unspecified), for which the “% Inhibition” value is 9% and the Z score is on record as -1.1.
Take `CC(=O)c1cccc(C(=O)N2CCC3(CCC(=O)N3)CC2)c1`: the “% Inhibition” value is listed as -9% and the Z score worked out at 1.1.
The like results for `Cc1nc(CC(=O)N2CC[C@@H]3OCc4cccc(c4)Oc4cccc(c4)CCC(=O)N(C)CC(=O)N[C@@H]3C2)cs1` were, in that order, 6% and -0.81.
Consider `Nc1nc(N2CC[C@@H](O)C2)cc([C@H]2C[C@@H](O)C2)n1`, for which the “% Inhibition” value was -5% and the Z score is listed as 0.65.
Take `Cc1ccc(C)c(C(=O)c2ccccc2C(=O)N2CC[C@H](N)C2)c1`: the “% Inhibition” value is reported as -5% and the Z score turned out to be 0.59.
With `CC(C)c1cc(CN(C)[C@H]2CS(=O)(=O)C[C@@H]2O)no1`, the “% Inhibition” value was -11% and the Z score is given as 2.16.
The like results for `CN(CCOCc1ncc[nH]1)Cc1ccccc1` were, in that order, -12% and 2.34.
As to `CN1CCc2cc(CN3CCC[C@@H]3Cn3ccnc3)ccc21`, the “% Inhibition” value is on record as 2% and the Z score is listed as -0.43.
As for `Cc1cc2c(=O)n(CCCN3C(=O)NC(C)(C)C3=O)cnc2cc1F`, the “% Inhibition” value is listed as -2% and the Z score is reported as 0.26.
The like results for `Fc1ccc([C@H](Cn2cnc3ccccc32)NCc2ccc3cn[nH]c3c2)cc1` were, in that order, -17% and 2.21.
Consider `CCN(CC)C(=O)CN1C(=O)C2(NC(C)C3C(=O)N(Cc4ccccc4)C(=O)C32)c2ccccc21` (stereo unspecified), for which the “% Inhibition” value is reported as -7% and the Z score came out at 0.92.
On to `Cc1cnn(C2CN(CCC(=O)Nc3sccc3C#N)C2)c1`, for which the “% Inhibition” value was -1% and the Z score is reported as 0.22.
As to `Cc1onc(C(=O)O)c1CN(Cc1ccc2c(c1)OCO2)C1CC1`, the “% Inhibition” value came to 3% and the Z score is given as -0.48.
For `COc1ccc(F)c(CN2CCC[C@@](O)(CN3CCN(C(C)=O)CC3)C2=O)c1`, the “% Inhibition” value turned out to be 0% and the Z score is on record as -0.03.
